Assay results from PubChem BioAssay (Tox21).
“And” between values parts separate entries of the source, which are not always exact repeats. Equal values may be shown once. This list was built around the results that the source calls inconclusive (neither active nor inactive); the mix of calls is not that of the screen. Where the call is inconclusive, the potency comes from a doubtful curve fit. More than one record can exist for a structure, and the calls need not agree. The source made the active and inactive calls. Unless noted, the call rests on the fitted dose curve; in most records, active means well fitted curve in the direction sought with a large enough effect in the repeat runs; inconclusive means weak or mixed curves; inactive means no such curve, though single readings can be large; an effect the other way counts as inactive or inconclusive.

Tested on: not listed separately
Assay: qHTS assay to identify small molecule antagonists of the thyroid receptor (TR) signaling pathway - cell viability counter screen (AID 743064); further: nearly all actives have a fitted effect of over 50% in size
Conditions: GH3.TRE-Luc viability, CellTiter-Fluor, 24 h; activity change, negative = cytotoxic: at 70.3 µM (top of the series) unless noted
In short: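 GH3.TRE-Luc rat pituitary cells dosed after 4 hr plating, co-stimulated with T3 at 1 nM final, incubated 23.5 h at 37 C. Viability measured in the same wells by CellTiter-Fluor fluorescence after 30 min further at 37 C.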
On the % scale 0 is the no-effect control and ±100 the full control effect; potency means the concentration at half of the fitted maximal effect; tags describe the fitted curve by direction and shape.

| SMILES | Potency | activity change, negative = cytotoxic |
| --- | --- | --- |
| O=S(=O)(O)O | inconclusive: 0.217 µM [rising, single point] | inconclusive: 35.7% [at 95 µM] |
| CC(=O)/C=C/c1ccc2c(c1)OCO2 | inconclusive: 68.9 µM [cytotoxic, single point] |  |
| CCCCCCn1cc[n+](C)c1 | inconclusive: 62.4 µM [rising, partial curve] |  |
| Nc1ccc(N)cc1 | inconclusive: 68.6 µM [cytotoxic, single point] |  |
| O=[Se]=O |  | inactive: -10.4% |
| CCC1(CCC(C)C)C(=O)NC(=O)NC1=O |  | inactive: 19.5% |
| Cc1ccccc1C(=O)Nc1cccc(OC(C)C)c1 |  | inactive: -4.21% |
| CCCCCC[N+](=O)[O-] | inconclusive: 10.9 µM [rising, single point] |  |
| C=CCOC(Cn1ccnc1)c1ccc(Cl)cc1Cl (stereo unspecified) | inconclusive: 33.5 µM [cytotoxic, single point] and inconclusive: 68.6 µM [cytotoxic, single point] |  |
| CCC(=O)C(CC(C)N(C)C)(c1ccccc1)c1ccccc1 (stereo unspecified) | active: 24.4 µM and active: 27.1 µM and active: 33 µM |  |
| COC(=O)Nc1nc2ccccc2[nH]1 | inconclusive: 4.86 µM [cytotoxic, full curve] |  |
| CCN(CC)C(=S)[S-].CCN(CC)C(=S)[S-].[Zn+2] | active: 5.4 µM |  |
| C#C[C@]1(O)C=C[C@H]2[C@@H]3CCC4=CC(=O)CC[C@@H]4[C@H]3CC[C@@]21CC | inconclusive: 33.5 µM [cytotoxic, single point] |  |
| CCCCC(CC)COP(=O)(Oc1ccccc1)Oc1ccccc1 (stereo unspecified) | inconclusive: 61.1 µM [cytotoxic, single point] |  |
| c1ccc(N=NNc2ccccc2)cc1 | inconclusive: 63.3 µM [cytotoxic] and inconclusive: 61.1 µM [cytotoxic] |  |
| Cc1ccccc1OP(=O)(Oc1ccccc1C)Oc1ccccc1C | active: 54.7 µM |  |
| O=[N+]([O-])/N=C1\NCCN1Cc1ccc(Cl)nc1 | inconclusive: 15 µM [rising, partial curve, poor fit] |  |
| CC(=O)[O-].CC(=O)[O-].[Hg+2] | active: 1.37 µM |  |
| Cc1cc(Cl)ccc1OCC(=O)O | inconclusive: 27.1 µM [rising, partial curve] |  |
| CC(C)(C)C(O)C(Oc1ccc(Cl)cc1)n1cncn1 (stereo unspecified) | inconclusive: 3.64 µM [cytotoxic] |  |
| Fc1ccc(Oc2ccnc3cc(Cl)cc(Cl)c23)cc1 | inconclusive: 77 µM [cytotoxic, single point] |  |

Tested on: not listed separately
Assay: qHTS assay to identify small molecule antagonists of the thyroid receptor (TR) signaling pathway (AID 743065); further: nearly all actives have a fitted effect of over 55% in size
Conditions: GH3.TRE-Luc, T3-stimulated luciferase inhibition, 23.5 h; series mostly up to 70.3 µM; activity, negative = inhibition: at the top concentration
In short: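 Antagonism measured as loss of luciferase signal in GH3 cells stably carrying a TRE-luciferase reporter, co-treated with compound and T3 (1 nM final) for 23.5 h at 37 C. Viability was read in the same well by CellTiter-Fluor.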

| SMILES | Potency |
| --- | --- |
| CC(=O)/C=C/c1ccc2c(c1)OCO2 | inconclusive: 68.9 µM [inhibitor, single point] |
| CCCCCCn1cc[n+](C)c1 | inconclusive: 50.5 µM [inhibitor] [middle of 5 runs] |
| Nc1ccc(N)cc1 | inconclusive: 77.3 µM [inhibitor, single point] and inconclusive: 77 µM [inhibitor, single point] |
| C[C@@H]1CC[C@H]2[C@@H](C)C(=O)O[C@@H]3O[C@@]4(C)CC[C@@H]1[C@]32OO4 | active: 2.37 µM |
| Cc1ccccc1C(=O)Nc1cccc(OC(C)C)c1 | inconclusive: 61.1 µM [inhibitor, single point] |
| C=CCOC(Cn1ccnc1)c1ccc(Cl)cc1Cl (stereo unspecified) | active: 23.7 µM and active: 61.3 µM and active: 30.6 µM |
| COC(=O)Nc1nc2ccccc2[nH]1 | active: 5.45 µM and active: 7.7 µM |
| CCCCC(CC)COP(=O)(Oc1ccccc1)Oc1ccccc1 (stereo unspecified) | inconclusive: 54.5 µM [inhibitor, partial curve] |
| c1ccc(N=NNc2ccccc2)cc1 | inactive |
| CCC1(c2ccc(N)cc2)CCC(=O)NC1=O (stereo unspecified) | inactive |
| CC(C)(C)C(O)C(Oc1ccc(Cl)cc1)n1cncn1 (stereo unspecified) | inconclusive: 30.6 µM [inhibitor] |
| O=c1oc2ccccc2c(O)c1Cc1c(O)c2ccccc2oc1=O | active: 11.4 µM |

Tested on: thyroid hormone receptor (rat, GH3 cells)
Assay: qHTS assay to identify small molecule agonists of the thyroid receptor (TR) signaling pathway (AID 743066; calls by dose curve)
Conditions: GH3.TRE-Luc cells, TR agonist luciferase, 24 h; activation: at 83.9 µM (top of the series) unless noted

| SMILES | activation | Potency |
| --- | --- | --- |
| C=CCOC(Cn1ccnc1)c1ccc(Cl)cc1Cl (stereo unspecified) | inconclusive: -8.13% [phenotype inactive] |  |
| CCC(=O)C(CC(C)N(C)C)(c1ccccc1)c1ccccc1 (stereo unspecified) | inconclusive: -7.76% [phenotype inactive] |  |
| CCN(CC)C(=S)[S-].CCN(CC)C(=S)[S-].[Zn+2] |  | inconclusive: 0.429 µM [inhibitor, partial curve, poor fit] |
| Cc1ccccc1OP(=O)(Oc1ccccc1C)Oc1ccccc1C |  | inconclusive: 19.4 µM [inhibitor, partial curve, poor fit] |
| CC(=O)[O-].CC(=O)[O-].[Hg+2] | inconclusive: -9.87% [phenotype inactive] |  |
| CCOP(=S)(OCC)OP(=S)(OCC)OCC |  | inactive |
| Fc1ccc(Oc2ccnc3cc(Cl)cc(Cl)c23)cc1 |  | inconclusive: 54.5 µM [inhibitor] |
